Data from PubChem BioAssay AID504706 (National Center for Advancing Translational Sciences (NCATS), 2011).
The campaign covered roughly 320,000 compounds. About 200 (0.062%) were called active. The inconclusive results got no clear call from the source; some entries with a clear call stand among them for comparison. The call rests on the fitted dose curve; in most records, active means well fitted activation curve with a large enough effect; inconclusive means small, poorly fitted or top-dose-only effect; inactive means no such curve, though single readings can be large or run the other way. Potencies of inconclusive entries are left out as doubtful fits.
Potency means the concentration at half of the fitted maximal effect; tags describe the fitted curve by direction and shape.

Experiment: qHTS assay for re-activators of p53 using a Luc reporter; further: nearly all actives have a fitted effect of over 45% in size
Conditions: H1299 p53-A138V BP100-luciferase reporter, luminescence, 24 h; series mostly up to 92.2 µM
Procedure, shortened: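 H1299 (p53-null), stable ts p53-A138V + BP100-Luc; 1000 cells/well, Opti-MEM/10% FBS; cpd 4 pt, 1:5; 24 h, 37 deg C, 5% CO2; detection reagent 10 min RT; luminescence.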
In the case of CCOC(=O)c1ccc(CNCc2ccccc2)cc1, the Potency was inconclusive [activator, partial curve]. For CSc1cccc(NC(=O)Nc2ccc(Cl)cc2)c1, the Potency was “inactive”. With CSc1nc2ccc(NC(=O)C3CCCO3)cc2s1 (stereo not drawn) the Potency was inconclusive [activator, partial curve, poor fit]. For CCOc1ccc(-c2nnc(-c3ccc(OC)cc3)o2)cc1, the Potency was “inactive”. In the case of S=C(NCCc1ccccc1)Nc1cccc2cnccc12, the Potency was “inactive”. With CCN(CC)c1ccc(/C=C2/C(=O)c3ccc(C(=O)O)cc3C2=O)cc1 the Potency was inconclusive [activator, full curve, poor fit]. For CCOC(=O)CSc1nc2sc3c(c2c(=O)n1-c1ccc(OCC)cc1)CCN(C)C3, the Potency was inconclusive [activator, single point]. With CC(=O)Nc1ccc(S(=O)(=O)N2CCN(C(=O)c3ccco3)CC2)cc1 the Potency was inconclusive [activator, full curve, poor fit]. In the case of COc1ccc(OC)c(C2=NOC(C(=O)NCc3ccco3)C2)c1 (stereo not drawn), the Potency was “inactive”. For COc1cc(C)c(Cl)cc1S(=O)(=O)NCCN1CCOCC1, the Potency was inconclusive [activator, single point]. In the case of COc1ccccc1C1C([N+](=O)[O-])=CC([N+](=O)[O-])=CN1C (stereo not drawn), the Potency was “inactive”. With CCOC(=O)N1CCC(NS(=O)(=O)c2cc(Br)cnc2N)CC1 the Potency was inconclusive [activator, partial curve, poor fit]. In the case of CCn1c2ccccc2c2cc(/C=N/NC(=O)c3ccccc3C)ccc21, the Potency was inconclusive [activator, partial curve, poor fit]. In the case of COc1ccccc1N=Cc1c(O)c2ccccc2oc1=O, the Potency was inconclusive [activator, partial curve, poor fit]. For CCC1CCCCN1CCCNC(=O)c1ccc(CS(=O)(=O)c2ccc(Br)cc2)o1 (stereo not drawn), the Potency was “inactive”. With COc1ccc(-n2nc(C(=O)NCC(=O)N3CCC(C)CC3)c3ccccc3c2=O)cc1Cl the Potency was inconclusive [activator, partial curve, poor fit]. With Cn1cccc1C(=O)C(=O)Nc1ccc(Cl)cc1 the Potency was inconclusive [activator, partial curve, poor fit]. With O=C(CSc1nnnn1C1CCCC1)N1CCN(C(=O)c2ccco2)CC1 the Potency was “inactive”. With COc1ccc(Nc2oc(COc3ccc(C)cc3)nc2C#N)cc1 the Potency was inconclusive [activator, single point]. For Cc1nc(C)c(/C(O)=C/c2nc3ccccc3oc2=O)s1, the Potency was inconclusive [activator, partial curve, poor fit]. For COc1ccc(C(=O)ON=C2CCN(c3ccc([N+](=O)[O-])cc3)CC2)cc1, the Potency was “inactive”. For CN1CCN(C(=O)c2cnn3c(C(F)(F)F)cc(-c4cccs4)nc23)CC1, the Potency was “inactive”. In the case of CCCCn1c(N)c(N(CCC(C)C)C(=O)C2CC(=O)N(c3ccc4c(c3)OCCO4)C2)c(=O)[nH]c1=O (stereo not drawn), the Potency was “inactive”. For N#Cc1ccsc1NC(=O)CSc1ncnc2ccccc12, the Potency was inconclusive [activator, partial curve, poor fit]. In the case of COc1ccc(CN(C)CC2CCCN(CCc3ccc(F)cc3)C2)cc1OC (stereo not drawn), the Potency was inconclusive [activator, partial curve, poor fit]. In the case of CCOc1ccccc1NC(=O)Nc1ccc(Cl)cc1, the Potency was inconclusive [activator, partial curve, poor fit]. In the case of O=C(NNC(=O)C1CC2CCC1C2)c1sc2ccccc2c1Cl (stereo not drawn), the Potency was inconclusive [activator, partial curve, poor fit]. In the case of COCC(=O)N(Cc1cc2cc(OC)ccc2[nH]c1=O)c1ccccc1OC, the Potency was “inactive”. With CC(=O)Nc1nc(-c2ccccc2)nc(C)c1C(C)=O the Potency was inconclusive [activator, single point]. In the case of CCn1cc(C(=O)O)c(=O)c2cc(F)c(N3CCN(C(=O)Nc4ccccc4)CC3)cc21, the Potency was “inactive”. With COc1ccccc1N1C(=O)CC(N2CCc3ccccc32)C1=O (stereo not drawn) the Potency was inconclusive [activator, single point]. In the case of O=C(Nc1nc2ccccc2[nH]1)c1ccc(Cl)c(S(=O)(=O)N2CCCC2)c1, the Potency was inconclusive [activator, full curve]. In the case of C=CCNC(=O)c1c(N)n(-c2cccc(S(N)(=O)=O)c2)c2nc3ccccc3nc12, the Potency was “inactive”. With COc1ccc2c(c1)CC/C(=C/c1ccncc1)C2=O the Potency was inconclusive [activator, partial curve, poor fit]. For Cc1ccccc1NC(=S)N/N=C/c1ccc(O)cc1O, the Potency was inconclusive [activator, full curve, poor fit]. With CC(C)COC(=O)c1ccccc1OC(=O)c1ccncc1 the Potency was inconclusive [activator, full curve, poor fit]. For Nn1c(SCC(=O)Nc2ccc(F)cc2F)nnc1C1CCCCC1, the Potency was inconclusive [activator, partial curve, poor fit]. In the case of CC(C)c1ccc(CCNC(=O)CCNS(=O)(=O)c2ccc(Br)cc2)cc1, the Potency was inconclusive [activator, full curve, poor fit]. With CC(=O)Nc1sc(N/N=C\c2ccccc2F)nc1-c1cccs1 the Potency was inconclusive [activator, partial curve, poor fit]. For Cn1cccc1C(=O)OCC(=O)N1CCc2ccccc21, the Potency was inconclusive [activator, partial curve, poor fit]. For O=S(=O)(c1ccc(Br)c2ccccc12)N1CCCC1, the Potency was inconclusive [activator, single point]. In the case of COc1ccc(-c2cc3ccc(F)cc3cn2)cc1, the Potency was inconclusive [activator, partial curve, poor fit]. In the case of COC(=O)CCCNC(=O)c1ccc2[nH]c(C)c(C)c2c1, the Potency was “inactive”. In the case of CSc1n[nH]c(=O)n1-c1cccc(Cl)c1, the Potency was “inactive”. For N/C(=N\OC(=O)c1ccc(F)cc1)c1cccc([N+](=O)[O-])c1, the Potency was “inactive”. For O=C(Nc1cccnc1)c1ccccc1F, the Potency was inconclusive [activator, single point]. With Cc1ccc2nc(-c3cccc(S(=O)(=O)N4CC(C)OC(C)C4)c3)cn2c1 (stereo not drawn) the Potency was inconclusive [activator, partial curve, poor fit]. In the case of Cc1ccc2nc(-c3ccc(NS(=O)(=O)c4ccc(F)c(F)c4)cc3)sc2c1, the Potency was inconclusive [activator, full curve, poor fit]. In the case of Cn1c(/C(C#N)=C(\O)c2ccc(Br)s2)nc2ccccc21, the Potency was “inactive”. With Cc1cc(C)n(S(=O)(=O)c2ccc(C(C)(C)C)cc2)n1 the Potency was inconclusive [activator, single point]. For Cc1ccc(C(=O)Nc2ccn(C)n2)cc1, the Potency was inconclusive [activator, partial curve, poor fit]. For Cc1cc(Nc2cccc(Cl)c2Cl)n2ncnc2n1, the Potency was “inactive”. In the case of CC(C)(C)c1ccc(COc2ccsc2C(=O)O)cc1, the Potency was inconclusive [activator, partial curve, poor fit]. For CC1Oc2ccccc2C=C1/C=N\NC(=O)c1cccnc1 (stereo not drawn), the Potency was “inactive”. In the case of CC(=O)c1ccc(-c2nnc(CCC(=O)N3CCCC(C(=O)CC(C)C)C3)o2)s1 (stereo not drawn), the Potency was inconclusive [activator, partial curve, poor fit]. For COc1ccccc1N1CCN(C(=O)Nc2ccc([N+](=O)[O-])cc2)CC1, the Potency was “inactive”. With COC(=O)c1sccc1NC(=O)COc1ccccc1Cl the Potency was inconclusive [activator, single point]. In the case of C=CCN(C(=O)COC(=O)c1cc[n+]([O-])cc1)c1nc(-c2ccccc2)cs1, the Potency was inconclusive [activator, partial curve]. In the case of N#CCCn1cc(/C=N/O)c(-c2cccc([N+](=O)[O-])c2)n1, the Potency was inconclusive [activator, single point]. In the case of COc1cccc(/C=N/N2CCN(c3ccccc3OC)CC2)c1, the Potency was inconclusive [activator, partial curve, poor fit]. With O=C(COC(=O)CNC(=O)c1ccccc1F)NC12CC3CC(CC(C3)C1)C2 the Potency was “inactive”. For O=C(COc1cc(F)ccc1[N+](=O)[O-])Nc1cccc(S(=O)(=O)NC2=NCCC2)c1, the Potency was inconclusive [activator, single point]. For COc1ccc(C2CC(c3ccc(OC)c(OC)c3)=NN2S(C)(=O)=O)cc1 (stereo not drawn), the Potency was inconclusive [activator, full curve, poor fit]. For c1ccc(CCCc2nc(-c3cccnc3)no2)cc1, the Potency was inconclusive [activator, single point]. With CC(=O)N[C@@H]1[C@@H](O)[C@@H]2OC(c3ccccc3)OC[C@H]2O[C@@H]1N=[N+]=[N-] (stereo partly drawn) the Potency was inconclusive [activator, partial curve, poor fit]. In the case of Cc1cccc(C(=O)Oc2ccc(/C=N/O)cc2)c1, the Potency was inconclusive [activator, full curve]. For O=C(Nc1ccc2[nH]ncc2c1)c1ccccc1Br, the Potency was inconclusive [activator, single point]. For Cc1ccc(NC(=O)c2csc(-c3ccccc3)c2C)cc1, the Potency was inconclusive [activator, partial curve, poor fit].
